Paper PMC4336329 (PLoS ONE, 2015)
In all, about 310,000 compounds went through this assay and about 14,000 (4.5%) showed an effect of 50% or more. The effect is printed as a negative number. Some of the results follow.
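Also: peak tail current of the secondary pulse compared with the same well before compound.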

What follows are compounds tested against human ether-à-go-go-related gene (hERG) potassium channel (human, UniProt Q12809) (assay: primary screen, population patch clamp on CHO cells stably expressing hERG).
human ether-à-go-go-related gene (hERG) potassium channel, sequence (Q12809 whole entry, looked up): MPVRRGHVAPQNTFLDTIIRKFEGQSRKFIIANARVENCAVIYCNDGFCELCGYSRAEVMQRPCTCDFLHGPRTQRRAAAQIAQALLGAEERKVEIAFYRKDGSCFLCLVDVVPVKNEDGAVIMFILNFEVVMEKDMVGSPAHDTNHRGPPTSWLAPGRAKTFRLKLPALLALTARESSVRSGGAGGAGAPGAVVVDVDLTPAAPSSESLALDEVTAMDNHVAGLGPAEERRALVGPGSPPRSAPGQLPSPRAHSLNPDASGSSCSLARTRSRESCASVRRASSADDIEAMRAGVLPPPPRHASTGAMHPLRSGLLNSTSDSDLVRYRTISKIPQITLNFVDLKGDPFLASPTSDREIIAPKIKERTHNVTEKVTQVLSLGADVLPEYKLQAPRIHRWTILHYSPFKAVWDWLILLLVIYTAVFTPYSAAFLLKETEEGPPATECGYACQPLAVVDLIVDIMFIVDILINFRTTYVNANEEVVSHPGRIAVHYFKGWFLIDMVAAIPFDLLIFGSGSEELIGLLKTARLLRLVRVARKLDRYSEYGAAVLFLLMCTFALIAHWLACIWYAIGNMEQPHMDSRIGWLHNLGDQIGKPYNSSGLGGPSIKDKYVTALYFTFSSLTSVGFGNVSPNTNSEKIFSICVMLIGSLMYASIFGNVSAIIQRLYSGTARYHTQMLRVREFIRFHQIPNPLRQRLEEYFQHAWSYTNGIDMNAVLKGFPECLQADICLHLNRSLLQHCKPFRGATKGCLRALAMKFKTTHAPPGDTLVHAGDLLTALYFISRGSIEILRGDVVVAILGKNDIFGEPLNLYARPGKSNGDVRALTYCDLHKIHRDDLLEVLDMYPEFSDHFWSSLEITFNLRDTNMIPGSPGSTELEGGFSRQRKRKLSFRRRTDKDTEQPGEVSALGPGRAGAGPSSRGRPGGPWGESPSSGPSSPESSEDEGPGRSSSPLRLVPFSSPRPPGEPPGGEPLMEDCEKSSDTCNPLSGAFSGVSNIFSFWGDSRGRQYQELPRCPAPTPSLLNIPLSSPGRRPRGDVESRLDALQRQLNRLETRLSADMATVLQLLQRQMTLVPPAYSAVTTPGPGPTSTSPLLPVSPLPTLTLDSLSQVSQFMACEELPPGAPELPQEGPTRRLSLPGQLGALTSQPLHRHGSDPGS
In the case of O=C(Nc1cccc2nsnc12)c1ccc(-c2cccc(Cl)c2)o1, the “hERG current change (%, negative = inhibition) at 10uM” value is reported as 10.4%. CCN1CCN(c2ccc(S(=O)(=O)N3CCCCC3)cc2NC(=O)/C=C/c2ccc(OC(F)F)cc2)CC1 was tested, and the “hERG current change (%, negative = inhibition) at 10uM” value was -50.2%. In the case of COc1c(C)cccc1C(=O)NCCCNC(=O)c1ccc(C)nc1, the “hERG current change (%, negative = inhibition) at 10uM” value is reported as 8.53%. For O=C(Nc1nnc(-c2ccco2)o1)c1ccc(N2C(=O)CCC2=O)cc1, the “hERG current change (%, negative = inhibition) at 10uM” value was 9.62%. With O=C(Nc1cc(Cl)cc(Cl)c1)C1C2C=CC3(O2)C1C(=O)N(CCCN1CCOCC1)C3C(=O)NC1CCCCC1 (centres unmarked) the “hERG current change (%, negative = inhibition) at 10uM” value was -10.1%. COC(=O)c1sc(S(=O)(=O)Nc2ccc(C)cc2)c(C(=O)OC)c1C was tested, and the “hERG current change (%, negative = inhibition) at 10uM” value was -0.0322%. CN(C)CC/C=C1\c2ccccc2CSc2ccccc21.Cl was tested, and the “hERG current change (%, negative = inhibition) at 10uM” value was -22.6%. With Nc1nc(-c2cccc(F)c2)cs1 the “hERG current change (%, negative = inhibition) at 10uM” value was 6.09%. COc1ccc(S(=O)(=O)Cc2ccc(C(=O)NCc3cccnc3)o2)cc1 was tested, and the “hERG current change (%, negative = inhibition) at 10uM” value was 2.58%. With O=C(O)/C=C/c1cn(Cc2ccccc2)nc1-c1cccs1 the “hERG current change (%, negative = inhibition) at 10uM” value was 19.7%. CCc1ccc(NC(=O)CCNC(=O)Cn2cnc3ccccc3c2=O)cc1 was tested, and the “hERG current change (%, negative = inhibition) at 10uM” value was 8.41%. For CCOCC(=O)N1CCCC(C(=O)OCC)C1 (centres unmarked), the “hERG current change (%, negative = inhibition) at 10uM” value was 1.56%. COc1ccc(-n2c(Cc3cccn3C)nnc2SCC(=O)N2CCCc3ccccc32)cc1 was tested, and the “hERG current change (%, negative = inhibition) at 10uM” value was -13.9%. COC(=O)N[C@@H]1C[C@H]2[C@@H]3CC[C@H]4C[C@@H](OC)CC[C@]4(C)[C@H]3CC[C@@]12C was tested, and the “hERG current change (%, negative = inhibition) at 10uM” value was 24.1%. In the case of COc1ccc(-c2c3c(=O)n(C)c(=O)n(C)c3cn2Cc2cccnc2)cc1, the “hERG current change (%, negative = inhibition) at 10uM” value is reported as 4.55%. For Cc1ccc(-c2csc(N/N=C/C=C/c3ccccc3)n2)cc1, the “hERG current change (%, negative = inhibition) at 10uM” value was -4.21%. In the case of COc1ccc(NC(=O)c2onc(C)c2Cl)cc1OC, the “hERG current change (%, negative = inhibition) at 10uM” value is reported as -3.2%. In the case of CC(=O)N1CCc2cc(S(=O)(=O)NCCC(=O)NC3CCCCCC3)ccc21, the “hERG current change (%, negative = inhibition) at 10uM” value is reported as -23%. In the case of O=C(Cn1c(=O)n(-c2ccccc2)c(=O)c2sccc21)NCc1ccccc1, the “hERG current change (%, negative = inhibition) at 10uM” value is reported as 28.7%. In the case of O=C(CSc1ccc2nnc(-c3ccncc3)n2n1)Nc1ccccc1F, the “hERG current change (%, negative = inhibition) at 10uM” value is reported as -7.78%. With O=C(O)c1cccc(-n2c(O)c(C=C3N=c4ccccc4=N3)sc2=S)c1 the “hERG current change (%, negative = inhibition) at 10uM” value was 2.4%. For COc1cccc(C(=O)NCC(=O)N/N=C/c2cccnc2)c1, the “hERG current change (%, negative = inhibition) at 10uM” value was 9.04%. COc1ccc(NC(=O)COC(=O)C2CC(=O)N(c3ccc(OC(C)C)cc3)C2)cc1 (centres unmarked) was tested, and the “hERG current change (%, negative = inhibition) at 10uM” value was 9.25%. In the case of CCCCCCSc1cc(-c2nc3ccc(Cl)cn3c2NCCCC)ccc1OC.O=C(O)C(F)(F)F, the “hERG current change (%, negative = inhibition) at 10uM” value is reported as 10.4%. With Cc1cc(OCC(=O)NCCN2CCOCC2)cc(C)c1Br the “hERG current change (%, negative = inhibition) at 10uM” value was -7.05%. With CCCCC(=O)c1c(C)cc(C)[nH]c1=O the “hERG current change (%, negative = inhibition) at 10uM” value was 6.27%. COc1ccc(Nc2nc(OC)nc(OC)n2)cc1 was tested, and the “hERG current change (%, negative = inhibition) at 10uM” value was -0.803%. For CCCCOc1ccc(CNn2c(C)nc3ccccc3c2=O)cc1, the “hERG current change (%, negative = inhibition) at 10uM” value was 14.6%. With CCOC(=O)c1c(NC(=O)C(Sc2ccccc2)c2ccccc2)sc(C(N)=O)c1C (centres unmarked) the “hERG current change (%, negative = inhibition) at 10uM” value was -3.17%. For CCCc1ccc(OCc2nc(-c3ccc(NC(=O)c4ccco4)cc3)no2)cc1, the “hERG current change (%, negative = inhibition) at 10uM” value was 3.17%. In the case of COc1ccc(CN2C(=NC(=O)c3ccccc3)SC3CS(=O)(=O)CC32)cc1OC (centres unmarked), the “hERG current change (%, negative = inhibition) at 10uM” value is reported as 5.14%. CCCCCC(=O)NNC(=S)NC(C)=O was tested, and the “hERG current change (%, negative = inhibition) at 10uM” value was 28.2%. With CS(=O)(=O)N1CCN=C1SCc1cccc(F)c1 the “hERG current change (%, negative = inhibition) at 10uM” value was 19.2%. O=C(CSc1nc2ccc([N+](=O)[O-])cc2[nH]1)NC1CCCCC1 was tested, and the “hERG current change (%, negative = inhibition) at 10uM” value was -3.6%. In the case of CCOc1ccc(NC(=O)CN(C)C(=O)c2ccc3[nH]c4c(c3c2)CC(C)CC4)cc1OCC (centres unmarked), the “hERG current change (%, negative = inhibition) at 10uM” value is reported as 16.7%. For C=CCc1c(C)nc(C)nc1N/N=C/c1ccc([N+](=O)[O-])cc1.Cl, the “hERG current change (%, negative = inhibition) at 10uM” value was -56.3%. With Cc1sc(NC(=S)NC(=O)c2ccccc2)c(C#N)c1C the “hERG current change (%, negative = inhibition) at 10uM” value was 0.195%. For CC(=O)c1c([O-])n(-c2cccc(Cl)c2)c(=O)[nH]c1=O.C[NH+](C)C, the “hERG current change (%, negative = inhibition) at 10uM” value was 3.98%. In the case of CCOC(=O)C1=C(C)N(CCCC(=O)O)C(=O)NC1c1ccccc1Cl (centres unmarked), the “hERG current change (%, negative = inhibition) at 10uM” value is reported as -0.145%. For CCS(=O)(=O)N1Cc2ccccc2CC1C(=O)N(C)CC(=O)Nc1cccc(F)c1 (centres unmarked), the “hERG current change (%, negative = inhibition) at 10uM” value was -16.5%. In the case of Br.CCn1c(O)c(N=NC2=NC(=O)CS2)c2ccccc21, the “hERG current change (%, negative = inhibition) at 10uM” value is reported as 2.88%. COc1ccccc1-c1noc(CCC(=O)Nc2cc(C(F)(F)F)ccc2Cl)n1 was tested, and the “hERG current change (%, negative = inhibition) at 10uM” value was -3.68%. For CCCCS(=O)(=O)N1CCN(S(=O)(=O)c2ccc(Cl)s2)CC1, the “hERG current change (%, negative = inhibition) at 10uM” value was -11.6%. CCS(=O)(=O)N1Cc2ccccc2CC1C(=O)Nc1nc2ccc(F)cc2s1 (centres unmarked) was tested, and the “hERG current change (%, negative = inhibition) at 10uM” value was 3.17%. For NC(=O)CSc1nc2sc3c(c2c2ncnn12)CCCC3, the “hERG current change (%, negative = inhibition) at 10uM” value was -27.4%. In the case of CCOC(=O)C1CSC(CC(=O)Nc2ccc(Cl)cc2)C(=O)N1 (centres unmarked), the “hERG current change (%, negative = inhibition) at 10uM” value is reported as -14.9%. In the case of Cn1c(=O)c(=O)n(C)c2cc(S(=O)(=O)NCCOc3ccccc3)ccc21, the “hERG current change (%, negative = inhibition) at 10uM” value is reported as 5.98%. In the case of N#CC1=C(N)Oc2cc(N)ccc2C1c1ccsc1 (centres unmarked), the “hERG current change (%, negative = inhibition) at 10uM” value is reported as 9.79%. O=C(CCN1C(=O)/C(=C\C=C\c2ccccc2)SC1=S)Nc1ccc(C(=O)O)cc1 was tested, and the “hERG current change (%, negative = inhibition) at 10uM” value was 14.7%. In the case of CC(C)CNC(=O)/C=C/c1cccs1, the “hERG current change (%, negative = inhibition) at 10uM” value is reported as -4.42%. O=C(Nc1cc2ccccc2oc1=O)c1ccccc1 was tested, and the “hERG current change (%, negative = inhibition) at 10uM” value was 22.7%. With COCCNC(=O)CN(CCc1ccccc1)S(=O)(=O)c1ccc(OC)cc1 the “hERG current change (%, negative = inhibition) at 10uM” value was -22.4%. CC1CCc2cccc3c(O)cc(=O)n1c23 (centres unmarked) was tested, and the “hERG current change (%, negative = inhibition) at 10uM” value was 5.84%. For COC(=O)c1[nH]c2ccc(C)cc2c1NS(=O)(=O)c1ccc(F)cc1, the “hERG current change (%, negative = inhibition) at 10uM” value was -5.62%. For CC(C)c1nc(CNC(=O)c2cc(COc3c(F)cccc3F)on2)cs1, the “hERG current change (%, negative = inhibition) at 10uM” value was -48.4%. With CCc1nnc(SCc2cccc(F)c2)nc1CC the “hERG current change (%, negative = inhibition) at 10uM” value was -7.7%.
